The values that follow come from the antibiotic and cytotoxicity screens of Wong et al. (2023).

Structures are written as SMILES. Some of the results follow.

The subject of assay [1] is HSkMC (human skeletal muscle cells). The assay can be described thus: cytotoxicity call (relative viability < 0.9). As to conditions: 10 µM.
Assay [2] relates to HepG2. The assay can be described thus: cytotoxicity call (relative viability < 0.9). The settings on record: 10 µM.
For assay [3], the system named is S. aureus RN4220. The assay can be described thus: growth inhibition call (relative growth <= 0.2). The settings on record: 50 µM.

For `CC(C)NC(=O)Nc1ccc2c(c1)C(=O)N([C@H](C)CO)C[C@@H](C)[C@H](CN(C)Cc1ccccc1)OCCCC[C@@H](C)O2`, the cytotoxicity call in assay [1] and in assay [2] was “inactive” each time. Besides, the growth inhibition call in assay [3] was “inactive”.

Take `C[C@@H]1CCCCO[C@@H](CN(C)Cc2ccccc2)[C@@H](C)CN([C@H](C)CO)C(=O)c2cc(NS(=O)(=O)c3ccc(Cl)cc3)ccc2O1`: the cytotoxicity call in assay [1] and in assay [2] was “inactive” each time. The growth inhibition call in assay [3] was “inactive”.

`C[C@@H]1CCCCO[C@@H](CN(C)CC2CCCCC2)[C@H](C)CN([C@@H](C)CO)C(=O)c2cc(NS(=O)(=O)c3ccc(F)cc3)ccc2O1`: the cytotoxicity call in assay [1] is “inactive”. In addition, the cytotoxicity call in assay [2] is “active”. In addition, the growth inhibition call in assay [3] is “inactive”.

As for `C[C@@H]1CN([C@H](C)CO)C(=O)c2cc(NC(=O)Cc3ccccc3)ccc2O[C@@H](C)CCCCO[C@H]1CN(C)S(=O)(=O)c1cccs1`, the cytotoxicity call in assay [1] and in assay [2] was “inactive” throughout. Moreover, the growth inhibition call in assay [3] is “inactive”.

Take `C[C@@H]1CN([C@@H](C)CO)C(=O)c2cc(NC(=O)Nc3cccc4ccccc34)ccc2O[C@H]1CN(C)Cc1ccc(Cl)c(Cl)c1`: the cytotoxicity call in assay [1] and in assay [2] was “inactive” each time. In addition, in assay [3], the growth inhibition call was “inactive”.

`C[C@H]1CN([C@@H](C)CO)C(=O)c2cc(C3=CCCC3)cnc2O[C@H]1CN(C)C(=O)Nc1ccc(C(F)(F)F)cc1`: in assay [1], the cytotoxicity call is “inactive”. Further, the cytotoxicity call in assay [2] was “active”. In assay [3], the growth inhibition call was “inactive”.

With `Cc1noc(C)c1S(=O)(=O)Nc1ccc2c(c1)CC(=O)N([C@H](C)CO)C[C@@H](C)[C@H](CN(C)C(=O)NC(C)C)O2`, the cytotoxicity call in assay [1] and in assay [2] was “inactive” each time. Further, the growth inhibition call in assay [3] is “inactive”.

`C[C@@H]1CCCCO[C@H](CN(C)S(C)(=O)=O)[C@H](C)CN([C@@H](C)CO)C(=O)c2cc(NC(=O)c3ccncc3)ccc2O1`: the cytotoxicity call in assay [1] and in assay [2] was “inactive” in each case. In addition, the growth inhibition call in assay [3] is “inactive”.

In the case of `Cc1ccc(S(=O)(=O)N(C)C[C@@H]2Oc3ccc(NC(=O)NC(C)C)cc3CC(=O)N([C@H](C)CO)C[C@H]2C)cc1`, the cytotoxicity call in assay [1] and in assay [2] was “inactive” throughout. Moreover, the growth inhibition call in assay [3] was “inactive”.

As for `C[C@@H]1CN([C@@H](C)CO)C(=O)Cc2cc(NS(C)(=O)=O)ccc2O[C@@H]1CN(C)Cc1ccc(C(F)(F)F)cc1`, the cytotoxicity call in assay [1] and in assay [2] was “inactive” in each case. In addition, in assay [3], the growth inhibition call is “inactive”.

On to `C[C@@H]1CN([C@@H](C)CO)C(=O)c2cc(C#Cc3cccc(F)c3)cnc2O[C@@H]1CN(C)Cc1ccccn1`, for which the cytotoxicity call in assay [1] and in assay [2] was “inactive” each time. For the same compound, in assay [3], the growth inhibition call was “inactive”.

On to `COc1ccc(NC(=O)Nc2ccc3c(c2)C(=O)N([C@H](C)CO)C[C@H](C)[C@H](CN(C)C(=O)Nc2c(C)noc2C)OCCCC[C@H](C)O3)cc1`, for which the cytotoxicity call in assay [1] and in assay [2] was “inactive” each time. The growth inhibition call in assay [3] was “inactive”.

Regarding `C[C@]12CC3CC(N)(C1)C[C@@](C)(C3)C2`, the cytotoxicity call in assay [1] and in assay [2] was “inactive” throughout. Moreover, the growth inhibition call in assay [3] is “inactive”.

`COc1ccc(NC(=O)N(C)C[C@@H]2OCc3cnnn3CCCC(=O)N([C@@H](C)CO)C[C@H]2C)c(OC)c1`: the cytotoxicity call in assay [1] and in assay [2] was “inactive” each time. In assay [3], the growth inhibition call was “inactive”.

For `C[C@H](CO)N1C[C@H](C)[C@@H](CN(C)Cc2cccc(C(=O)Nc3ccccc3N)c2)OCc2ccccc2-c2c(n(C)c3ccccc23)C1=O`, the cytotoxicity call in assay [1] and in assay [2] was “inactive” each time. For the same compound, the growth inhibition call in assay [3] is “inactive”.

On to `C[C@H](CO)N1C[C@H](C)[C@@H](CN(C)S(=O)(=O)c2cn(C)cn2)Oc2cc(C3=CCCCC3)ccc2S1(=O)=O`, for which the cytotoxicity call in assay [1] and in assay [2] was “inactive” each time. Moreover, the growth inhibition call in assay [3] was “inactive”.

In the case of `CCCC#Cc1ccc2c(c1)O[C@H](CN(C)S(=O)(=O)c1cccc(OC)c1)[C@H](C)CN([C@@H](C)CO)S2(=O)=O`, the cytotoxicity call in assay [1] and in assay [2] was “inactive” each time. In addition, the growth inhibition call in assay [3] was “inactive”.

On to `C[C@H](CO)N1C[C@H](C)[C@H](CN(C)S(=O)(=O)c2ccccc2)Oc2ncc(C#CCN(C)C)cc2C1=O`, for which the cytotoxicity call in assay [1] and in assay [2] was “inactive” each time. Also, the growth inhibition call in assay [3] is “inactive”.

For `C[C@@H]1CN([C@H](C)CO)C(=O)c2cc(NS(=O)(=O)c3ccc(F)cc3)ccc2O[C@@H]1CN(C)S(=O)(=O)c1cccs1`, the cytotoxicity call in assay [1] and in assay [2] was “inactive” each time. Also, in assay [3], the growth inhibition call is “inactive”.

In the case of `COc1ccc(NC(=O)Nc2ccc3c(c2)C(=O)N([C@H](C)CO)C[C@@H](C)[C@H](CN(C)S(=O)(=O)c2ccc(OC)cc2)OCCCC[C@H](C)O3)cc1`, the cytotoxicity call in assay [1] and in assay [2] was “inactive” each time. The growth inhibition call in assay [3] is “inactive”.

On to `COc1c(O)cc(O)cc1O`, for which the cytotoxicity call in assay [1] and in assay [2] was “inactive” each time. In addition, the growth inhibition call in assay [3] is “inactive”.

Consider `CCOc1ccc([C@@H](C)N)cc1OCC`, for which the cytotoxicity call in assay [1] and in assay [2] was “inactive” in each case. In assay [3], the growth inhibition call is “inactive”.

Consider `C[C@@H]1CCCCO[C@H](CN(C)Cc2ccc(Cl)c(Cl)c2)[C@@H](C)CN([C@@H](C)CO)C(=O)c2cc(NC(=O)Cc3ccccc3)ccc2O1`, for which the cytotoxicity call in assay [1] and in assay [2] was “inactive” each time. Moreover, the growth inhibition call in assay [3] is “inactive”.

As to `C[C@@H]1CN([C@@H](C)CO)C(=O)c2cc(C#CC3CCCC3)cnc2O[C@@H]1CN(C)C(=O)Cc1ccccn1`, the cytotoxicity call in assay [1] and in assay [2] was “inactive” throughout. Besides, the growth inhibition call in assay [3] was “inactive”.

`CCOCC(O)COc1ccc(NC(=O)CC[S+](C)C)cc1.Cc1ccc(S(=O)(=O)[O-])cc1` (stereo not given): the cytotoxicity call in assay [1] and in assay [2] was “inactive” each time. Further, in assay [3], the growth inhibition call was “inactive”.
